Laboratory results from article PMC4336329 (PLoS ONE, 2015).
Hit rate of the full screen: of about 310,000 compounds, about 2,200 (0.71%) showed an effect of 50% or more. Effects have a minus sign here. The list shows a part of the results.

target: human ether-à-go-go-related gene (hERG) potassium channel (human, UniProt Q12809); test: primary screen, population patch clamp on CHO cells stably expressing hERG
Sequence (Q12809 whole entry, looked up): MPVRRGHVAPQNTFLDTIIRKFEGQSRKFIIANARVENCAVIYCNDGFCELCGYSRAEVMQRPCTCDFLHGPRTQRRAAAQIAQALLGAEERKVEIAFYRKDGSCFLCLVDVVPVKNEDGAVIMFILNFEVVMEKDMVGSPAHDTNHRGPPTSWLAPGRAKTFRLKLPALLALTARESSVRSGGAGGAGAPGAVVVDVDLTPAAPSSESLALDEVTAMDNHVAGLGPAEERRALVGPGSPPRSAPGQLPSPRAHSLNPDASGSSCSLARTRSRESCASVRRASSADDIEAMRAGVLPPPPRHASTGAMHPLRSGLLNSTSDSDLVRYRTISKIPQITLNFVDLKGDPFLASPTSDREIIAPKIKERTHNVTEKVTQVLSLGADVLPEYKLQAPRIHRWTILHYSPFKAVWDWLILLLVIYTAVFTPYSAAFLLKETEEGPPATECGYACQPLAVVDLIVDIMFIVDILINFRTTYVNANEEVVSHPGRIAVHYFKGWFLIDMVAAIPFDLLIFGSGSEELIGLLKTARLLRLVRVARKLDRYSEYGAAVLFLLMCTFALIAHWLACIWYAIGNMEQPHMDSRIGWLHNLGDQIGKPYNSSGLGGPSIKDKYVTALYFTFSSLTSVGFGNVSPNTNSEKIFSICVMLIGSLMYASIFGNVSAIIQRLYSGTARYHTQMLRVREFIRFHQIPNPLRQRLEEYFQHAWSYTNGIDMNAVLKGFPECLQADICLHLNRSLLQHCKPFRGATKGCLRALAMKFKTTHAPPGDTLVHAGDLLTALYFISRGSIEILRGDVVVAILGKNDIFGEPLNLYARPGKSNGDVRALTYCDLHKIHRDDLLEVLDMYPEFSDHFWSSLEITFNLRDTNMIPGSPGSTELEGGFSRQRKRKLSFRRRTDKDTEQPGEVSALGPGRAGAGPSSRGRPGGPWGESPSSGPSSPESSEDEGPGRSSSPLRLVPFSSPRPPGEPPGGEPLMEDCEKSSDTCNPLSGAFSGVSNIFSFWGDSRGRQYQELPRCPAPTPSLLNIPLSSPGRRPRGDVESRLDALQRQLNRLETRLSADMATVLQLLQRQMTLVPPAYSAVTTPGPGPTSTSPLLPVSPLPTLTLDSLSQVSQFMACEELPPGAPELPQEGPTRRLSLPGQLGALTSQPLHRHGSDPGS

Row | SMILES | hERG current change (%, negative = inhibition) at 1uM [%]
1 | C=CCNC(=O)N1CCC(CO)(Cc2ccc(Cl)cc2)CC1 | 10.7
2 | CCCCCOc1ccc(C(=O)OCC(=O)Nc2cc(C)c(C)cc2[N+](=O)[O-])cc1 | 5.18
3 | Cc1onc(-c2ccccc2Cl)c1C(=O)Nc1sc2c(c1C(N)=O)CCC(C)C2 (centres unmarked) | 21.2
4 | COC(=O)C1CCN(S(=O)(=O)CCNC(=O)c2ccc(F)cc2)CC1 | 0.112
5 | Cc1cc(NC(=O)CCC(=O)N(c2ccc(F)cc2)C(C(=O)NC2CCCC2)c2ccc(C)o2)no1 (centres unmarked) | 20.6
6 | C/C(=N\Nc1nc(C)cc(C)n1)c1ccc(C)o1 | 9.51
7 | CSCC(C)N1CCC(n2nccc2NC(=O)c2ccccc2C)CC1 (centres unmarked) | -9.65
8 | O=C(Nc1ccc(-n2cccn2)cc1)C1CCN(Cc2ccccn2)CC1 | 12.7
9 | FC(F)(F)c1cc(Oc2ccccc2Cl)nc(-c2ccccn2)n1 | 1.53
10 | COC(=O)c1ccc(/C=N/N2C(C)CCCC2C)cc1 (centres unmarked) | 4.76
11 | COc1ccc(/C=C2\CCCC3C2=NC(=S)NC3c2ccc(OC)cc2)cc1 (centres unmarked) | 6.2
12 | Cc1ccc(CNC(=O)c2ccc(N(C)C)cc2)cc1 | 1.58
13 | CC1CCc2c(sc3nc(CN4CCOCC4)nc(N4CCc5ccccc5C4)c23)C1 (centres unmarked) | 4.9
14 | CN(CCCOc1ccccc1F)Cc1ccccc1.O=C(O)C(=O)O | -1.16
15 | CN(C(=O)C1CCCN(c2ncnc3c2nc2n3CCCCC2)C1)c1cccc(Cl)c1 (centres unmarked) | -14.5
16 | CCCOC(=O)c1ccc(Oc2c(-c3ccc(OC)cc3O)n[nH]c2C)cc1 | 5.63
17 | COc1ccc(CCC(=O)NCCS(=O)(=O)N2CCN(c3ccccc3)CC2)cc1 | 2.17
18 | COC(=O)c1c(S(N)(=O)=O)c2ccccc2n1C | 7.76
19 | O=C(CNC(=O)c1ccc(Cl)cc1)c1ccccc1 | 2.38

Row | SMILES | hERG current change (%, negative = inhibition) at 1uM [%]
20 | CN1CCC(=NNc2ncnc3sc4c(c23)CCCC4)CC1 | 14.6
21 | Cc1cccc(NC(=O)C2CC(O)CN2C(=O)Oc2ccccc2)c1 (centres unmarked) | 25.1
22 | O=C(Cc1ccccc1)O/N=C1\CCCc2ccccc21 | 13.1
23 | CC(C)C12CN3CCN(CC(C3)/C1=N\NC(=O)Nc1ccccc1)C2 | 3.99
24 | Cc1c(NS(=O)(=O)c2ccc(N3CCCCC3)c([N+](=O)[O-])c2)c(=O)n(-c2ccccc2)n1C | 7.17
25 | COc1ccc(NC(C)=[N+](C)CCNS(=O)(=O)c2ccc(Cl)cc2)cc1.[I-] | -59.5
26 | CCOc1ccc(N2C(=O)C(Cl)=C(N3CCOCC3)C2=O)cc1 | 12.6
27 | COc1ccc(-c2nnc(SCC(=O)N/N=C/c3ccccc3C(=O)O)n2-c2ccccc2)cc1 | 13.4
28 | CCN(c1ccccc1)S(=O)(=O)c1ccc(Cl)c(C(=O)NCC2CCCO2)c1 (centres unmarked) | 2.1
29 | COC(=O)c1cc(NC2c3ccccc3C(=O)N2CCN2CCOCC2)cc(C(=O)OC)c1 (centres unmarked) | 9.2
30 | COc1ccc(C(C(=O)NC2CCCC2)N(C(=O)c2snc(C(N)=O)c2N)c2ccccc2OC)cc1OC (centres unmarked) | 8.79
31 | CCn1c(=O)c([N+](=O)[O-])c(Cl)c2ccccc21 | 19.1
32 | C/C=C/Cn1c(Br)nc2c1c(=O)n(C)c(=O)n2C | 10.7
33 | CC1Sc2ccc(S(=O)(=O)NCc3ccccc3)cc2NC1=O (centres unmarked) | 4
34 | CC1CCCC(C)N1C(=O)CSc1nnc(NC(=O)Cc2cccs2)s1 (centres unmarked) | 5.08
35 | COC(=O)C1(Cc2ccc(O)cc2)OC(=O)C(O)=C1c1ccc(O)cc1 (centres unmarked) | 8.74
36 | O=C(Nc1ccccc1)Nc1ccc(Oc2cccnc2)nc1 | 0.586
37 | CC1(C)CC2CC(C)(CN2C(=O)NC(=O)c2ccccc2)C1 (centres unmarked) | 1.21
38 | CNc1nc(N)nc(-c2cc(Cl)ccc2OC)n1 | 13.1

Row | SMILES | hERG current change (%, negative = inhibition) at 1uM [%]
39 | Cc1ccc(CSc2nc3ccncc3[nH]2)cc1 | -12.6
40 | COc1ccccc1NC(=O)NCc1ccco1 | 17.4
41 | CN(C)c1cccc(C(=O)OCC(=O)NCc2ccco2)c1 | 4.71
42 | CCn1c(=O)cc(SCC(=O)Nc2cccc(C)n2)c2ccccc21 | 11.4
43 | COc1ccc(-c2cc(-c3nnc(-c4ccncc4)o3)c3ccccc3n2)cc1 | 4.1
44 | O=C(NCc1ccco1)c1ccc(COc2ccccc2Cl)cc1 | 2.96
45 | CC(=O)N1CCN(c2ccc(NC(=O)c3cc4ccccc4o3)cc2)CC1 | 3.82
46 | COc1ccc(-n2nnc3c(=O)n(Cc4cc(C)ccc4C)cnc32)cc1 | -2.97
47 | COc1ccc(-n2c(SCC(=O)NNC(=O)c3ccccc3C)nnc2-c2ccncc2)cc1 | -1.64
48 | COc1ccc(Cl)cc1NC(=O)CSc1nnc(COc2ccccc2)n1C | -12.1
49 | Cc1cc(C)n2nc(C(=O)NCc3ccco3)cc2n1 | 4.66
50 | COC(=O)c1ccc(Oc2nc(C)cc(Oc3ccccc3)n2)cc1 | 3.11
51 | CCSC1=C(C#N)C(c2ccc3c(c2)OCO3)C2=C(CCCC2=O)N1 (centres unmarked) | -2.35
52 | Nc1nc(-c2ccc(S(=O)(=O)N3CCCCC3)cc2)cs1 | 8.23
53 | CN(C)S(=O)(=O)Oc1ccc(C(=O)Nc2ccc([N+](=O)[O-])cc2)cc1 | -0.426
54 | Cc1ccccc1Nc1nc(N)nc(CN(C)c2ccccc2)n1 | 5.23
55 | CN(CC(=O)Nc1ccc(N2CCOCC2)cc1)C(=O)C12CC3CC(CC(C3)C1)C2 | -0.85
56 | COC(=O)c1ccc(N2C(=O)CC(N3CCOCC3)C2=O)cc1 (centres unmarked) | 7.77
